According to US12144856B2 (priority 2019, dated 2024):

Test system: splenic follicular helper T cells (Tfh)
Settings: mouse, in vivo, ip

CCCCCCCCCCCCCCCCOP(=O)([O-])OCC[N+](C)(C)C [miltefosine]
Percentage of splenic follicular helper T cells (Tfh): significantly higher
